Among all 48,000 compounds or so, about 120 (0.25%) were called active. Inconclusive results, whose numbers are uncertain, are shown with a selection of clear calls. Calls follow the shape of the dose curve; as a rule, active = well fitted activation curve with a large enough effect; inconclusive = small, poorly fitted or top-dose-only effect, or another doubt; inactive = no such curve, though single readings can be large or run the other way. Where the call is inconclusive, the potency comes from a doubtful curve fit.
Experiment: Primary qHTS for Identification of Small Molecule Activators of Huntingtin-Antisense Promoter Activity; also: nearly all actives have a fitted effect of over 55% in size
Conditions: HEK293 HTT-AS promoter firefly luciferase reporter, 24 h; activity change, positive = activation: at 57.5 µM (top of the series), percent change from vehicle, -100% = no light
Method in brief: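 Quantitative HTS used concentration series of up to 57.5 uM final on HEK293 luciferase reporter cells, 24 h at 37 degrees C. Readout was Dual-Glo firefly luminescence.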
Potency is read from the fitted curve at half-maximal effect; tags tell the direction and shape of the fitted curve.

Compound	Potency	activity change, positive = activation
CCCN(Cc1cccs1)C(=O)Nc1ccc(OCC)cc1	inconclusive: 3.98 µM [activator, full curve]	–
COC(=O)/C=C\C(=O)OC	–	inactive: 1.58%
COc1ccc(NC(=O)Cn2nnc(C(=O)NCCc3ccccc3)c2N)cc1	–	inactive: -7.42%
O=C(COc1ccccc1)NCCc1csc(-c2ccc(Cl)cc2)n1	–	inactive: -14.7%
CCOc1ccc(NC(=O)c2c(NCc3cccnc3)sc3c2CCCC3)cc1	inconclusive: 14.1 µM [activator, partial curve, poor fit]	–
O=C(CC1(O)C(=O)N(CCc2ccccc2)c2ccc(Br)cc21)c1ccccc1 (configuration not stated)	–	inactive: -39.6%
COc1ccc(NC(=O)Nc2nnc(SCC(=O)Nc3cccc(C)c3C)s2)cc1	inconclusive: 2 µM [activator, full curve, poor fit]	–
COc1cccc(-c2cn3c(n2)sc2cc(C(=O)NCc4cccs4)ccc23)c1	inconclusive: 10 µM [activator, partial curve]	–
O=C(CCN1CCC(c2ccccc2)C1)c1ccc2c(c1)OCCO2 (configuration not stated)	–	inactive: 7.77%
Cn1nc(C(=O)NCc2ccccc2)c2c1-c1ccccc1SC2	inconclusive: 22.4 µM [activator, partial curve, poor fit]	–
COc1cc(OC)cc(C(=O)Nc2cc3nn(-c4ccccc4)nc3cc2Cl)c1	inconclusive: 2 µM [activator, full curve, poor fit]	–
CCOc1ccc(-c2oc3ccccc3c(=O)c2O)cc1OCC	inconclusive: 2.82 µM [activator, full curve]	–
COc1ccc(CSc2nc3ncccc3[nH]2)cc1	inconclusive: 1.41 µM [activator, full curve, poor fit]	–
CC(=O)OCC#CCSc1nnc(-c2cccc(Br)c2)o1	–	inactive: 6.52%
O=C(C1CCC(CNS(=O)(=O)c2ccc(Br)s2)CC1)N1CCN(c2ccccc2)CC1 (configuration not stated)	–	inactive: -28.8%
Cc1nnc(SCc2cc(=O)n3c(C)cccc3n2)s1	inconclusive: 25.1 µM [activator, partial curve, poor fit]	–
CCOc1ccc(-n2c(=O)c3c4c(sc3n(Cc3cccc(Cl)c3)c2=O)CCCC4)cc1	inconclusive: 1.58 µM [activator, partial curve, poor fit]	–
Cc1c(CNCCCc2ccccc2)c(C(=O)O)c(C)n1Cc1ccc(Cl)cc1	–	inactive: -17.8%
Oc1ccccc1-c1nc(/C=C/c2ccc(F)cc2)no1	inconclusive: 15.8 µM [activator, partial curve, poor fit]	–
Cc1[nH]c2ccccc2c1CCNCc1ccc(C=CC(=O)NO)cc1	inconclusive: 1.93 µM [activator, full curve]	–
CC1CCN(C(=O)c2ccc(NC(=O)c3nsc4ccccc34)cc2)CC1	inconclusive: 0.891 µM [activator, partial curve, poor fit]	–
COc1ccc(Cl)cc1-n1c(CCC(=O)O)ccc1-c1ccc(C)cc1	–	inconclusive: 46.4% [activator]
COc1ccc(NC(=O)c2oc3ccccc3c2NC(=O)Cc2ccc(F)cc2)c(OC)c1	–	inactive: -9.21%
CCC[C@@H](C=O)NC(=O)[C@H](CC(C)C)NC(=O)[C@H](CC(C)C)NC(=O)OCc1ccccc1	–	inactive: -59.7%

Compound	Potency	activity change, positive = activation
Fc1cccc(F)c1-c1nc(-c2ccncc2)no1	inconclusive: 8.91 µM [activator, partial curve]	–
CCOc1ccc(-n2c(C)nc3c(cnn3-c3ccc(C)cc3)c2=O)cc1	–	inconclusive: -85.8% [activator]
COc1ccccc1CNC(=O)Cn1c(=O)oc2cc(S(=O)(=O)N3CCC(C)CC3)ccc21	–	inactive: -25.2%
Cc1cccc(-c2nc(CCNC(=O)Cc3ccc(F)cc3)cs2)c1	–	inactive: -30.5%
COc1ccc(C2N=C(N)Nc3nc4ccccc4n32)c(OC)c1OC (configuration not stated)	–	inactive: -2.24%
O=C(NCc1ccccc1)[C@H](Cc1ccccc1)NC(=O)[C@@H]1O[C@@H]1C(=O)NCCc1ccc(O)cc1	–	inactive: -13.1%
COc1ccccc1NC(=O)c1c(C)cc(C)nc1SCC(=O)Nc1ccc(C)cc1	–	inactive: -28.7%
Cc1ccc2nc(-c3ccc(C)s3)c(Nc3ccc4c(c3)OCCO4)n2c1	inconclusive: 5.62 µM [activator, partial curve, poor fit]	–
COc1ccc(Cl)cc1NC(=O)Cn1nc(C(F)(F)F)c2c1CCCC2	–	inactive: -29.3%
O=C(CN1c2ccc(Br)cc2-c2ccccc2S1(=O)=O)N1CCCCC1	inconclusive: 11.2 µM [activator, partial curve]	–
CC(=O)Nc1c(C)nn(-c2ccccc2)c1N1CCC(C(=O)Nc2ccccc2C(F)(F)F)CC1	inconclusive: 31.6 µM [activator, single point]	–
Cc1ccc(-c2cn3c(n2)sc2cc(C(=O)NC4CCCc5ccccc54)ccc23)cc1 (configuration not stated)	inconclusive: 2.82 µM [activator, full curve]	–
CCCS(=O)(=O)N1CCC(n2c(C)nc3cccnc32)CC1	inconclusive: 2.82 µM [activator, partial curve, poor fit]	–
Cc1ccc2nc(-c3cccs3)c(Nc3ccc4c(c3)OCCO4)n2c1	inconclusive: 1.78 µM [activator, full curve]	–
COc1ccccc1NC(=O)C1=C(C)Nc2nc3ccccc3n2C1c1ccccc1Cl (configuration not stated)	–	inactive: -5.78%
Cc1ccccc1Nc1c(-c2c[nH]c3ccccc23)nc2ccccn12	inconclusive: 14.1 µM [activator, partial curve, poor fit]	–
CCn1nnc2cc(C(=O)Nc3ccc(C)cc3Br)ccc21	inconclusive: 4.47 µM [activator, full curve]	–
CCOc1ccccc1CNC(=O)c1ccc2c(c1)sc1nc(-c3ccccc3)cn12	inconclusive: 10 µM [activator, partial curve, poor fit]	–
O=C(Oc1ccccc1Cl)c1cc(-c2ccc3c(c2)OCCO3)on1	inconclusive: 28.2 µM [activator, single point]	–
O=C(Nc1nnc(S(=O)(=O)N2CCCCC2)s1)c1ccc(F)cc1	–	inactive: -13.5%
CCn1nnc2cc(C(=O)Nc3ccc(OC)cc3)ccc21	inconclusive: 17.8 µM [activator, partial curve, poor fit]	–
Cc1cc2c(cc1S(=O)(=O)NCc1ccccc1Cl)OCC(=O)N2	–	inactive: -15.7%
COc1ccc(OC)c(NC(=O)Cn2cnc3onc(-c4ccc(Cl)cc4)c3c2=O)c1	–	inactive: -47.1%
Cc1cc(C)c(S(=O)(=O)NCC(c2ccco2)S(=O)(=O)c2cccs2)c(C)c1 (configuration not stated)	–	inactive: -16.8%

Compound	Potency	activity change, positive = activation
CCOc1ccc(CNC(=O)c2ccc3c(c2)nc2n3CCCCC2)cc1	inconclusive: 1.78 µM [activator, full curve, poor fit]	–
Cc1ccc(SCC(=O)Nc2ccc3oc(-c4ccccc4F)nc3c2)cc1	inconclusive: 2.82 µM [activator, partial curve, poor fit]	–
CCC(C)n1c(=N)c(C(=O)NC2CCCCC2)cc2c(=O)n3ccccc3nc21 (configuration not stated)	–	inconclusive: 36.9% [activator]
CCc1ccccc1NC(=O)c1sc(-n2nc(C)c(Cc3ccccc3)c2C)nc1C	–	inactive: -8.77%
CCOc1ccc(-c2nonc2NC(=O)c2oc3cc(C)ccc3c2C)cc1OCC	–	inactive: -5.42%
COc1ccc(C)cc1NC(=O)C(Cc1ccccc1)NS(=O)(=O)c1ccc(Br)s1 (configuration not stated)	–	inactive: -19.3%
O=C(Nc1nc2n(n1)C(c1ccccc1)C=C(c1ccc(Cl)cc1)N2)c1ccco1 (configuration not stated)	–	inactive: -24.7%
CCOC(=O)Cn1c(=O)c2c(nc(N3CCOCC3)n2Cc2ccccc2)n(C)c1=O	–	inactive: -4.18%
COc1cc(-c2ccc(=O)[nH]n2)ccc1OC(F)F	inconclusive: 0.708 µM [activator, full curve, poor fit]	–
Cc1ccc(NC(=O)c2nnn(Cc3cccc(C(F)(F)F)c3)c2N)c(C)c1	–	inactive: 1.08%
COC(=O)c1cc(Cl)c(NC(C)=O)cc1OC	–	inactive: 3.75%
Cc1ccc(CNC(=O)CCSCc2cnn(-c3ccccc3)c2-n2cccc2)cc1	–	inactive: -22.9%
CCc1ccc(NC(=O)c2cccc(N3CCCS3(=O)=O)c2)cc1	inconclusive: 2 µM [activator, partial curve, poor fit]	–
Cc1ccc(C)c(NC(=O)CSc2nnc3[nH]c(=O)cc(-c4ccccc4)n23)c1	inconclusive: 17.8 µM [activator, partial curve, poor fit]	–
CCOc1ccc(NC(=O)Cn2c(=O)n(CC3CCC(C(=O)NCCc4ccccc4)CC3)c(=O)c3ccccc32)cc1 (configuration not stated)	–	inconclusive: -25.9% [activator]
COC(=O)CCCn1c(-c2ccc(C)cc2)c(C)n2c3c(=O)n(C)c(=O)n(C)c3nc12	–	inactive: -8.36%
COc1ccc(-c2cn3c(n2)sc2cc(C(=O)NC(C)C45CC6CC(CC(C6)C4)C5)ccc23)cc1 (configuration not stated)	inconclusive: 20 µM [activator, partial curve, poor fit]	–
COc1ccc(NC(=O)c2csnn2)cc1Cl	inconclusive: 14.1 µM [activator, partial curve]	–
Clc1ccc(-c2cc3ncc4c(n3n2)-c2ccccc2OC4)cc1	inconclusive: 1.58 µM [activator, partial curve, poor fit]	–
O=C(c1cc2ccc3cccnc3c2[nH]1)N1CCCCC1	inconclusive: 0.178 µM [activator, full curve, poor fit]	–
CCOC(=O)c1c(NC(=O)/C(C#N)=C/c2ccc(OC)cc2)sc2c1CCC2	–	inactive: -5.51%
COCc1cc(C)nc2sc(C(=O)Nc3ccccc3O)c(N)c12	inconclusive: 11.2 µM [activator, partial curve, poor fit]	–
Cc1nc(C2CCCCC2)c(-c2ccc(S(N)(=O)=O)c(F)c2)o1	–	inactive: -26.7%
COc1cccc(CNc2nc3ccccc3c3nc(-c4cccc(C)c4)nn23)c1	inconclusive: 7.94 µM [activator, partial curve]	–

From PubChem BioAssay AID1508624 (National Center for Advancing Translational Sciences (NCATS), 2021)
